Drawing on PMC12136788, this text covers binding signal for six molecules.

The chains are these.
T1: UNK ZnF1-3 (human, UniProt Q9C0B0 31-174)
T1 sequence: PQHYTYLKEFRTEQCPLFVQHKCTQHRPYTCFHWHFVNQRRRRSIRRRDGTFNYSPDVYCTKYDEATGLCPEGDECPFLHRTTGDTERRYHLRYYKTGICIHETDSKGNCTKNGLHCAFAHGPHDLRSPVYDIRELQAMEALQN

B1: 16805037_16807016_525_CDS_ENSMUSG00000024304_ENSMUST00000115850|mouse|control|control (ssRNA)
RNA: GGGAGUUCUACAGUCCGACGAUCGAUGGGGUUGAUAAUGAAGAUGCCCGUUGGAGGCUGGUCAGCUCCUGGCCCAGUGACGCUGUAUCUCAGGGAAAGGUUUUUAUCUCUAUCAGACCUGAUUCUGACAAGCUCUUGAGGAAACAACAGAGGAUUGAGCAUCA
B2: chrX:45232703:45232704:-_ENSMUSG00000031099_ENSMUST00000088973|mus_mus|motif|central (ssRNA)
RNA: GGGAGUUCUACAGUCCGACGAUCAGAUGGAACCCAUCGUUUAAAUUCAUUCAUCCAGUUAUGUAAAGUAGACUUGGGAACGGAAACCAUGUGGGGUCCAGGAAUGUUUCUGUAGUGCUUCAGGUAACCAAGCAAGGCAAUGGUCAACAGAGGAUUGAGCAUCA
B3: chr3:148802587:148802588:-_ENSG00000071794_ENST00000310053|hu_mus|hu_hu_hu_mus_False|8_48 (ssRNA)
RNA: GGGAGUUCUACAGUCCGACGAUCUCCAACAACUUGUCCUCUCAUAGUUCCAAAUAAAACCAAAUCUUGCUCUUCAUCACUCGUUAGAAAGUCAUCUGGAGGAAUAAUGUCUUGGAAUUCAAAAUGUGGAAAGAAAGUUGAGUACAACAGAGGAUUGAGCAUCA
B4: chr6:72561926:72561927:-_ENSMUSG00000056429_ENSMUST00000070524|mus_mus|FALSE|FALSE (ssRNA)
RNA: GGGAGUUCUACAGUCCGACGAUCGUAAAUAAAACAUCACCAGAGGAGAGUGUCAUCAAAGUGCCGGUGCAAAACCUGAAGCUAUCCCAUCUCUGCCAGCCCAGACUUGCCACCAAACCCCAGAGGAGGUCACAGUCUUUUCAUCAACAGAGGAUUGAGCAUCA
B5: chr10:18963012:18963013:+_ENSG00000165997_ENST00000377275|hu_hu|FALSE|FALSE (ssRNA)
RNA: GGGAGUUCUACAGUCCGACGAUCCCCUUCUCCUGUGAGAGCACAGCAGGAUUGAAUGUGCCAUGGAUGAUCCUUAAUUGAACUAAGGGUGAGGUAUUUCGAGAUUUCAGCUGCUGUCAUACACCCUUUCAUAUCCUGUUUAUUCAACAGAGGAUUGAGCAUCA
B6: chr8:126036873:126036874:-_ENSG00000164961_ENST00000318410|hu_mus|FALSE|FALSE (ssRNA)
RNA: GGGAGUUCUACAGUCCGACGAUCAUGCACGUUGCAUGAGGAGUCAAGUAUCUUUCUCACGUCCAAGUUCAUUCUAGUCAUAGAACAUCCUGUCACUGGAGCAGGAGAAAGAAGUCACAGGACUGUUCGGAAUUCAUCAAAAAUCAACAGAGGAUUGAGCAUCA

The other results are listed elsewhere or left out.

The assay concerns the target T1, UNK ZnF1-3. Briefly: nsRBNS (natural sequence RNA bind-n-seq); RBNS binding buffer (assumed for nsRBNS): 25 mM Tris pH 7.5, 150 mM KCl, 3 mM MgCl2, 0.01% Triton X-100, 500 ug/ml BSA, 20 U/ml SUPERase-In, 4 C; UNK is unkempt and MSI1 is Musashi-1; names of the RNAs are library labels; protein concentration not given here; high values mean tight binding.
Take B1: the binding signal is 1.07 enrichment R.

In turn, B2 had a binding signal of 1.15 enrichment R.

In turn, B3 showed a binding signal of 1.26 enrichment R.

B4: the binding signal worked out at 2.11 enrichment R.

For the molecule B5, the binding signal was 0.896 enrichment R.

B6 came in with a binding signal of 0.971 enrichment R.
